In the supplement of paper PMC3334620:
Over roughly 33,000 sequences, “E-score (-0.5 to 0.5)” has its median near -0.01; the highest 2% begin near 0.26. The list shows a part of the results.

Target: Ste12 (UniProt P13574)
Assay: PBM E-score (8-mer binding enrichment) (E-score (-0.5 to 0.5)); higher = stronger / more preferred TF binding; most listed sequences are background and not binding sites
Conditions: protein concentration: 200 nM; construct: GST-DNA-binding domain
Summary of the method: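 PURExpress in vitro transcription/translation supplied GST-tagged yeast transcription factors, either full-length or DNA-binding domain. Applied at about 100-200 nM to universal all-10-mer Agilent arrays double-stranded by primer extension, the bound protein was detected with fluorescent anti-GST. E-scores, modified Wilcoxon-Mann-Whitney statistics, were given by the Universal PBM Analysis Suite to ungapped eight-base words pooled with their reverse complements after masliner normalisation.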

| Sequence | PBM E-score |
| --- | --- |
| AGTTAATA | 0.0746 |
| AGACAGCT | -0.111 |
| ACGCCTTC | -0.193 |
| AGACCTCT | -0.135 |
| ATAGGTAA | 0.0657 |
| CTTGAGAC | 0.158 |
| CATGACCG | -0.0106 |
| CACGAATG | 0.0379 |
| ACTGCACT | -0.184 |
| CGCAAAAC | 0.0853 |
| AGTCGCCA | -0.27 |
| CTCTTAAG | -0.0926 |
| ATCCCCGG | 0.00117 |
| CTTTGAGC | -0.18 |
| CGAAGACC | -0.0792 |
| ATGCCCAT | -0.281 |
| ACTGCACA | -0.235 |
| CATCGTCG | -0.0289 |
| ACACAAGG | -0.192 |
| ATAGGTCG | -0.0327 |
| GGGAAGAA | 0.0723 |
| TCCTTCCA | -0.0945 |
| CATTATTC | 0.0605 |
| ATCCTGCG | -0.182 |
| TGCTCCAA | 0.063 |

| Sequence | PBM E-score |
| --- | --- |
| ACATGAAC | 0.0476 |
| ATCACAGG | -0.0882 |
| CAAGCGCA | 0.0662 |
| CTTCTGAC | -0.102 |
| CCATAGGC | -0.0498 |
| ACGAGCTG | -0.0751 |
| CCGTGCTA | -0.0463 |
| ACTCAGCC | 0.0119 |
| AATTTCTG | 0.163 |
| GAGCATAA | 0.131 |
| AAATTTAA | 0.289 |
| ATACGTAG | -0.125 |
| GTTCTGCA | -0.205 |
| CCCAGTCG | 0.012 |
| AAACGTAC | -0.146 |
| ATGCTACG | -0.0768 |
| TCTCGTAA | -0.0365 |
| GTATTCAC | 0.0258 |
| TCGCTACA | -0.0739 |
| ATGAATGC | 0.138 |
| ACCGGCGT | -0.0423 |
| ATGACAAT | -0.028 |
| CTCATAAC | -0.0159 |
| CAGGCTGA | 0.039 |
| CGCCTCTC | -0.193 |

| Sequence | PBM E-score |
| --- | --- |
| GAATGCTC | -0.262 |
| TAAAGACA | -0.0651 |
| CCACCAAC | -0.0807 |
| GATTGGCC | -0.284 |
| AAACAGTT | 0.245 |
| ACTGCCGA | -0.0319 |
| CACACAAC | 0.0607 |
| GCTACAGC | 0.0784 |
| ACTTTTCT | 0.183 |
| ATGCTGCA | -0.223 |
| GCCCCCCA | -0.248 |
| AGTTGCAA | 0.0159 |
| AAGACTCA | -0.133 |
| AGTAGCAT | 0.0568 |
| AAACTTGA | 0.0828 |
| ACGCACTC | -0.0692 |
| ACATACGC | -0.0224 |
| AAATACTT | 0.126 |
| GGCGTAAC | -0.213 |
| ATGATACA | 0.294 |
| AGAGACCA | -0.185 |
| AACGACTA | -0.00221 |
| TCCGGCAA | 0.0748 |
| CGAGGTAA | 0.16 |
| CTTAGGTA | 0.0168 |

| Sequence | PBM E-score |
| --- | --- |
| AACCCGCT | 0.0301 |
| ACTGAATA | 0.0269 |
| CGGTTATC | -0.0501 |
| GGTAGATA | 0.125 |
| ATAAACAG | 0.181 |
| CAATCACG | -0.141 |
| TGTAAGAA | 0.111 |
| TAACTAGA | 0.214 |
| AATAATGG | 0.0901 |
| GAACACGC | 0.059 |
| CTGCTGAC | -0.0575 |
| CTAATCTA | -0.0806 |
| AGAACAGC | 0.0361 |
| ATCATAGC | 0.1 |
| GAACTACC | 0.0169 |
| TGACGTCA | 0.0803 |
| AAACCATG | -0.0069 |
| GTCCTAGA | -0.127 |
| GACGATCC | 0.116 |
| ACGCGGCG | 0.027 |
| ACCTTTCA | -0.1 |
| AAGTGCCC | -0.114 |
| CTATGGGA | -0.134 |
| AAGAGCCT | -0.207 |
| ATGCTAAG | 0.00289 |

| Sequence | PBM E-score |
| --- | --- |
| AACGTGTG | -0.123 |
| GCCCAACC | 0.0314 |
| CAGACACG | -0.13 |
| ATATTGTC | 0.115 |
| CTCCAATC | -0.143 |
| AAATCGGG | 0.19 |
| ATATCTAA | 0.241 |
| CTCGGAGA | 0.0521 |
| TCTTAAGA | 0.00892 |
| CTGATTGC | -0.109 |
| GATACAGC | 0.0546 |
| GTCAGATA | 0.0271 |
| ACGCTCAC | -0.0174 |
| AAGGACTC | -0.315 |
| AAACGTAG | 0.0547 |
| ATTAGCGC | 0.0514 |
| ACCCGCCT | -0.12 |
| AACAGTTG | -0.016 |
| TCGAGCCA | -0.272 |
| ATCCACTC | -0.072 |
| ACGGCATA | 0.00284 |
| ACCTTTTG | -0.124 |
| CTCCAGTC | 0.0501 |
| CGGAAACG | 0.109 |
| AGTGAGGG | -0.146 |

| Sequence | PBM E-score |
| --- | --- |
| GGCTATAC | -0.184 |
| AACTTTTG | 0.138 |
| AATCTCGC | -0.0392 |
| AAGCACAA | 0.0259 |
| CAGCATTA | -0.0209 |
| CTAGCCAG | -0.255 |
| CCTCAACG | -0.128 |
| GACCCCCA | -0.223 |
| ATCATTCC | -0.0156 |
| CTACAAAC | -0.0316 |
| ACCTAACT | 0.184 |
| GATGTGGA | -0.048 |
| GAATCCGA | 0.0836 |
| AGGTGAAC | -0.14 |
| CTTCGTAC | -0.0602 |
| CTATACTA | 0.068 |
| AGACCAAA | 0.0504 |
| CAAACATA | 0.23 |
| ATGTTCGG | 0.114 |
| ACGTGATC | -0.0673 |
| GCAATTAA | 0.167 |
| AAGGAGAG | -0.228 |
| CAGTCGGG | 0.0633 |
| TACGCACA | -0.00528 |
| CCACTCGC | -0.0268 |

| Sequence | PBM E-score |
| --- | --- |
| ACAAATAA | 0.252 |
| CGCTGGGC | -0.183 |
| CGATCGCA | 0.0906 |
| AGGTCCGC | -0.0607 |
| ATGCAGGG | -0.111 |
| AAAGCTAA | 0.0285 |
| GGACCTGA | -0.0635 |
| TGGCCACA | 0.00045 |
| GCTATCAC | -0.198 |
| GTACGCGA | -0.132 |
| TCTCAGCA | 0.0504 |
| ACAAATTG | 0.177 |
| ATATCCGG | 0.0217 |
| CCTGGTTA | -0.059 |
| GAACCGGA | -0.0365 |
| CGACCGAC | -0.00449 |
| TGGGCGAA | -0.091 |
| TATTCGGA | 0.122 |
| CAAAGACA | -0.0628 |
| ACGTCCTA | -0.151 |
| GAACGCAC | 0.0691 |
| AGGATGCA | -0.0775 |
